Experimental data from PubChem BioAssay AID1956 (SRMLSC, 2009).
This is one part of the list. These are further read-outs of the screen, such as a control signal, another cell line or another target. No call is given for them.

Test: enhancers of HSV replication in host cells, fold increase, host cell viability (AID 1956); also: tested in PC3 cells
Conditions: HSV replication augmentation in cells; fold increase: measured here: primary screen fold increase 10 uM, at 10 µM, stronger effect = higher value; viability: measured here: host cell viability series, at 25 µM, stronger effect = lower value

| SMILES | fold increase | viability [%] |
| --- | --- | --- |
| CCN(CC)c1ccc(/C=C2\SC(=O)N(C(C)C)C2=O)o1 | 1.54 | 89.5 |
| CC(C)(C)SCCNS(=O)(=O)c1ccc(C#N)cc1 | 1.42 | 97.5 |
| O=S(=O)(c1cccc(-c2cn3cc(Cl)ccc3n2)c1)N1CCOCC1 | 1.43 | 93 |
| COc1ccccc1-n1c(SCC(=O)Nc2ccc(C)cc2)nc(O)cc1=O | 1.32 | 97.5 |
| CSc1nc(Cl)c(Cc2ccc(OC(C)C)cc2)c(N(C)C)n1 | 1.43 | 62.5 |
| CCOC(=O)c1c(CN2CCCCC2)n(C)c2cc(Br)c(O)cc12 | 1.48 | 82.1 |
| COc1cccc2[nH]c3c(N4CCC(C)CC4)ncnc3c12 | 1.36 | 85.8 |
| O=[N+]([O-])c1ccc(/C=C/C2=NN(c3ccccc3)C(c3ccco3)C2)cc1 (stereo not drawn) | 7.15 | 91.2 |
| Cc1c(=O)n(OCc2ccccc2)c2ccccc2[n+]1[O-] | 3.57 | 97.2 |
| c1ccc(N2CCN(c3nc4ccccc4n4nnnc34)CC2)cc1 | 1.54 | 88 |
| CN1/C(=C\C(=S)NC(=O)c2cccc(Br)c2)C(C)(C)c2ccccc21 | 1.67 | 56.2 |
| COc1cc(C2C(C#N)=C(N)Oc3n[nH]c(-c4cccs4)c32)cc(OC)c1O (stereo not drawn) | 1.34 | 89.8 |
| OC(CNCc1ccccc1)c1ccccc1 (stereo not drawn) | 1.37 | 96.8 |
| CCOC(=O)CCSc1nc(C)cc(C(F)(F)F)c1C#N | 1.62 | 98.8 |
| O=C1c2cccc3c([N+](=O)[O-])ccc(c23)C(=O)N1c1ccccn1 | 2.44 | 1.67 |
| Fc1ccc(-n2c(-c3ccco3)nc3nc4ccccc4nc32)cc1 | 1.58 | 92.3 |
| O=C(O)CSCC(=O)Nc1ccc(C2CCCCC2)cc1 | 1.43 | 94.4 |
| O=C(O)C1Sc2[nH]c(=O)sc2C2c3ccc(O)cc3OC(=O)C12 (stereo not drawn) | 1.37 | 96 |
| Cc1cn2c(N)c(C=C3C=C(Cl)C(=O)C(Cl)=C3)c(=O)nc2s1 | 1.39 | 111 |
| CCN1CCc2c(sc(NC(=S)NC(=O)c3ccco3)c2C(N)=O)C1 | 1.86 | 90 |
| CN(C)c1ccc(/C=C2\C(=N)N3C(=NC2=O)Sc2cc(S(C)(=O)=O)ccc23)cc1 | 3.42 | 96 |
| CC(C)C1CC(C(F)(F)F)n2nc(C(=O)O)cc2N1 (stereo not drawn) | 1.33 | 101 |
| CC1CCCCN1C(=O)Cn1c(=O)n(CCC(=O)NCc2ccco2)c(=O)c2sccc21 (stereo not drawn) | 1.46 | – |
| Cc1[nH]nc(-c2ccc(OCc3cnn(-c4ccccc4)c3)cc2O)c1Oc1ccc(Cl)cc1 | 1.16 | – |

| SMILES | fold increase | viability [%] |
| --- | --- | --- |
| C=CCc1ccccc1OCC(O)Cn1ccnc1C (stereo not drawn) | 1.59 | 90.8 |
| COc1ccc(S(=O)(=O)/N=C2/NC(=O)/C(=C/c3ccco3)S2)cc1 | 1.08 | – |
| O=C1c2ccccc2-c2ncnc3c(N4CCOCC4)cc(N4CCOCC4)c1c23 | 1.67 | 84.7 |
| COc1ccc2c(C)cc(SCC(=O)N3CCOCC3)nc2c1 | 1.72 | 102 |
| Cc1cc(C)n2cc(CSc3nnc(SCc4cn5c(C)cc(C)nc5n4)s3)nc2n1 | 1.46 | – |
| NNc1nc(-c2ccccc2Cl)nc2sc3c(c12)CCCC3 | 1.36 | 75.3 |
| CCCCC1CCCC12NC(=O)NC2=O (stereo not drawn) | 1.45 | 103 |
| Cc1ccc(N2NC3(CCN(C(N)=O)CC3)NC2=O)cc1 | 1.47 | 101 |
| O=C(O)CNC(=O)CCCn1nnc2ccccc2c1=O | 1.36 | 96.4 |
| CCN(CC)c1ccc(C=C(c2nnnn2-c2ccc(C)cc2)c2nnnn2-c2ccc(C)cc2)cc1 | 1.56 | 91 |
| CCCCC(CCCC)=N/N=C/c1c(O)n(CC)c2cc(C3=NNC(=O)CC3)ccc12 | 1.36 | 92.1 |
| O=C(c1c(Cl)cccc1Cl)N1CCN(c2ccccn2)CC1 | 1.37 | 94.8 |
| COc1ccc(-c2c(C(C)=O)c(C)nc3sc4c(=N)n(N)cnc4c23)cc1 | 1.97 | 101 |
| Cc1c(Cl)cccc1NC(=S)NCc1ccc(Cl)cc1 | 1.25 | – |
| CCN1CCN(Cc2c(O)ccc3c2O/C(=C\c2ccc(C)cc2)C3=O)CC1 | 1.48 | 96.8 |
| Cc1cccc(NC(=O)C2CCCN2/C=C/C(=O)C(F)(F)F)c1C (stereo not drawn) | 1.32 | – |
| CN1CCCN(C(=O)Cc2c(Cl)cccc2Cl)c2nc3ccccc3nc21 | 3.31 | 95.7 |
| COC(=O)C1=C(O)C(C(=O)OC)C(c2ccc(C)cc2)C(C#N)(C#N)C1c1ccc(C)cc1 (stereo not drawn) | 1.54 | 71.3 |
| O=c1ccc2cc3c4c(c2o1)CCCN4CCC3 | 1.33 | 96.2 |
| Cc1ccc(NS(=O)(=O)c2cc([N+](=O)[O-])ccc2N/N=C/c2sc(N3CCOCC3)nc2-c2ccccc2)c(C)c1 | 1.92 | 22.9 |
| C(=C\c1ccco1)/c1nc2ccccc2[nH]1 | 1.32 | – |
| S=C(c1cn(CCOc2ccccc2)c2ccccc12)N1CCCC1 | 1.11 | – |
| COc1ccc(NC(=S)NCCC(c2ccccc2)c2ccccc2)c(OC)c1 | 1.11 | – |
| COc1ccc(-c2cc(C(F)(F)F)c3c(n2)sc2c(O)cc(=O)[nH]c23)c(OC)c1 | 1.98 | – |

| SMILES | fold increase | viability [%] |
| --- | --- | --- |
| O=C(Cn1cc2c(n1)CCCCC2)NCCCN1CCOCC1 | 1.33 | 95.2 |
| CCCCOc1ncnc2c1[nH]c1ccc(C)cc12 | 1.32 | – |
| O=C(O)C(Cc1ccccc1)N1C(=O)/C(=C/c2cccs2)SC1=S (stereo not drawn) | 1.64 | 86.7 |
| CC(C)CN1C(=O)/C(=C/c2c(N3CCc4ccccc4C3)nc3ccccn3c2=O)SC1=S | 5.54 | – |
| CC[N+](C)(CC)CC(O)COCC1COc2ccccc2O1 (stereo not drawn) | 1.33 | 99.3 |
| Fc1ccc(C2=CC(c3ccc(Br)o3)n3ncnc3N2)cc1 (stereo not drawn) | 5.9 | 94 |
| COc1ccc(S(=O)(=O)C(C#N)c2nc3ccccc3nc2N2CCCCC2)cc1 (stereo not drawn) | 1.41 | 103 |
| COC(=O)c1cc(NC(=O)c2c(Cl)nc3sccn23)cc(C(=O)OC)c1 | 1.12 | – |
| COc1ccc(C(c2c(O)nc(SC)n(C)c2=O)c2c(O)nc(SC)n(C)c2=O)cc1O | 1.55 | 90.2 |
| Cc1nn(CC(=O)OC(C)C(=O)Nc2ccccc2[N+](=O)[O-])c(C)c1[N+](=O)[O-] (stereo not drawn) | 1.53 | 104 |
| O=c1cc2oc3cc(O)c(O)cc3c(-c3ccccc3O)c-2cc1O | 1.96 | – |
| O=[N+]([O-])c1cc(-c2cnc3ccccc3n2)ccc1Oc1ccc(Cl)cc1 | 1.39 | 94.1 |
| COc1ccc(C)cc1NC(=O)CSc1nnc(CC(=O)Nc2ccccc2C)n1C | 1.33 | 100 |
| CC(C)(C)OC(=O)N/N=C/c1cc(N=Nc2ccccc2)ccc1O | 1.4 | 95.9 |
| CCOc1ccccc1/C=N/NC(=O)Cc1csc(Nc2cccc(C(F)(F)F)c2)n1 | 1.16 | – |
| CCN1CC=C2C(C#N)=C(N)C(C#N)(C#N)C(CCc3ccccc3)C2C1 (stereo not drawn) | 2.96 | 87.9 |
| O=C(N/N=C/c1sc2ccccc2c1O)c1ccccc1 | 1.62 | – |
| CCOC(=O)C(NC(=O)c1ccccc1Cl)(Nc1sc2c(c1C(N)=O)CCC2)C(F)(F)F (stereo not drawn) | 1.5 | 103 |
| COc1cc(OC)cc(C(=O)NCc2ccc3c(c2)cc(C)n3C)c1 | 1.52 | 95.9 |
| CCc1nnc(NC(=O)Cc2ccc(OC)c(OC)c2)s1 | 1.34 | 95.8 |
| CN1CC=C2C(C#N)=C(N)C(C#N)(C#N)C(Cc3ccccc3)C2C1 (stereo not drawn) | 1.32 | – |
| CC1(C)Cc2c(c(N3CCOCC3)nc3sc4c(NN)ncnc4c23)CS1 | 1.51 | 14.4 |
| CCC(C)(C)C(=O)Nc1ccc(OC)cc1[N+](=O)[O-] | 1.42 | 97.2 |
| CN1CC(=O)N(CC(=O)Nc2ccc(N(C)C)cc2)c2ccccc2C1=O | 1.44 | 101 |

| SMILES | fold increase | viability [%] |
| --- | --- | --- |
| N#C/C(=C\c1ccc(N2CCOCC2)o1)C(=O)NC1CCCCC1 | 2.32 | 90 |
| COCCN(Cc1cc2cc3c(cc2nc1Cl)OCO3)C(=O)Nc1ccccc1OC | 1.56 | 82.3 |
| COCCn1c(C)cc(C(=O)CSc2cc(C)c3ccc(OC)cc3n2)c1C | 1.53 | 90.4 |
| N#Cc1c(NC(=O)c2ccccc2Cl)n(Cc2ccccc2)c2nc3ccccc3nc12 | 2.27 | – |
| NC(=S)Nc1cc(Cl)cc(Cl)c1 | 1.41 | 70.2 |
| NS(=O)(=O)c1ccc(Nc2ccc([N+](=O)[O-])c3nonc23)cc1 | 1.45 | 91.5 |
| CCN1CCN(C(=S)NCc2ccc(C)cc2)CC1 | 1.33 | 98.5 |
| O=C(NCCN1C(=O)C2C3C=CC(C3)C2C1=O)Nc1ccccc1 (stereo not drawn) | 1.33 | 102 |
| CC(=O)C1=C(c2ccc(Br)cc2)C(=O)c2ccccc2C1=O | 1.82 | 13.7 |
| Cn1c(N)c(N=O)c(=O)n(C)c1=O | 1.36 | 90.5 |
| COC(=O)C1=NN(C(=O)c2ccc(Cl)cc2)C(O)(c2ccccc2)C1 (stereo not drawn) | 1.48 | 96.4 |
| CCCCCCc1cc2cc(-c3nnc(-c4cc(OC)c(OC)c(OC)c4)o3)c(=O)oc2cc1O | 2.63 | 56.7 |
| COc1ccc(Nc2nnc(SCC(=O)Nc3cc(C)on3)s2)cc1 | 1.12 | – |
| O=C1OCC/C1=C\c1ccc2c(c1)OCO2 | 1.35 | 91.5 |
| CCOC(=O)CC1C(=O)NCCN1c1nc2ccc(C)cn2c(=O)c1/C=C1\SC(=S)N(CC(C)C)C1=O (stereo not drawn) | 7.88 | 63.2 |
| O=C(COc1ccccc1)Nc1nc(-c2ccc(S(=O)(=O)N3CCOCC3)cc2)cs1 | 1.12 | – |
| CCCn1c(=N)n(CC(O)c2ccco2)c2ccccc21 (stereo not drawn) | 1.27 | 99.3 |
| O=C(O)c1cccc(Cn2c(Cl)c(/C=N/NC(=O)c3cc4ccccc4cc3O)sc2=O)c1 | 1.43 | – |
| CCCCCN1C=CC=C/C1=C\C=C(C#N)C#N | 3.03 | 97.2 |
| O=C(c1ccc(Cl)cc1)C(Cn1cncn1)C(Sc1ccccc1)c1ccccc1 (stereo not drawn) | 1.2 | – |
| CCCN1C(=O)/C(=C/c2c(N3CCNC(=O)C3CC(=O)OC)nc3c(C)cccn3c2=O)SC1=S (stereo not drawn) | 8.68 | – |
| CCc1ccc(C2CC(c3cccc(Cl)c3)n3nc(N)nc3N2)cc1 (stereo not drawn) | 1.41 | 78.8 |
| COc1ccc2nc3oc(C(=O)N4CCN(c5ccccc5F)CC4)cc3cc2c1 | 1.09 | – |
| OCCN(CCO)Cc1ccc(Br)cc1 | 1.33 | 98.4 |
